Some of the results follow. Sequences were assembled here from the parent chain. Inactive controls read about 0.05.
B1: TEV protease; numbered along this chain (parent)
chain: MGESLFKGPRDYNPISSSICHLTNESDGHTTSLYGIGFGPFIITNKHLFRRNNGTLVVQSLHGVFKVKDTTTLQQHLVDGRDMIIIRMPKDFPPFPQKLKFREPQREERICLVTTNFQTKSMSSMVSDTSCTFPSGDGIFWKHWIQTKDGQCGSPLVSTRDGFIVGIHSASNFTNTNNYFTSVPKNFMELLTNQEAQQWVSGWRLNADSVLWGGHKVFMVKPEEPFQPVKEATQL

Variants of: B1
Assay: raw area under fraction-flipped curve 0-4 h after induction (AUC4h, not background-subtracted), DNA-recorder readout of cleavage of the substrate (dimensionless); higher = more cleavage of the substrate by the protease variant
Conditions: temperature: 34 °C; time window: 0-4 h after rhamnose induction
Procedure: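 In vivo DNA recorder in E. coli TOP10(DE3) ΔrhaA at 34 °C. Each TEVp single-site mutant (parent TEVp 0) is paired with a single-site variant of the 7-mer TEVs (canonical ENLYFQ|S). The substrate sits between flexible linkers in a Bxb1-sfGFP-TEVs-SsrA fusion, so cleavage stabilises Bxb1 and speeds flipping of a recombination array, read by NGS. The value is the raw area under the fraction-flipped curve over 0-4 h after rhamnose induction (AUC4h), with ≥20 reads per time point. It is not background-subtracted; inactive controls average about 0.047.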
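Note: Bxb1 expression induced with 0.2% (w/v) L-rhamnose at OD600 near 0.5, cultures sampled hourly, flipped fraction per protease–substrate barcode pair counted by paired-end Illumina sequencing.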

Variant	area with substrate ENLCFQS	area with substrate ENLDFQS	area with substrate ENLFFQS	area with substrate ENLIFQS	area with substrate ENLKFQS	area with substrate ENLNFQS	area with substrate ENLRFQS	area with substrate ENLSFQS	area with substrate ENLHFQS	area with substrate ENLQFQS	area with substrate ENLVFQS	area with substrate ENLWFQS	area with substrate ENLLFQS	area with substrate ENLPFQS	area with substrate ENLGFQS	area with substrate ENLMFQS	area with substrate ENLEFQS	area with substrate ENLTFQS
E3F	0.0677	0.0665	0.094	0.108	0.093	0.0711	0.0774	0.076	–	–	–	–	–	–	–	–	–	–
E3C	0.0845	0.0797	0.0962	–	–	0.0516	0.0804	–	0.103	0.0627	0.0701	0.0985	–	–	–	–	–	–
T23A	0.0626	0.0653	–	0.0682	0.08	0.0643	–	0.0634	0.0555	0.0663	–	0.0424	0.0718	0.0654	–	–	–	–
I84A	0.0713	0.062	0.069	0.0737	0.0643	0.0456	0.0694	0.0661	0.0661	0.0619	–	–	0.057	0.0597	0.0671	–	–	–
G162L	0.073	0.072	0.0862	0.0719	0.0749	0.0665	–	–	–	–	–	0.0637	0.0733	0.0579	0.0713	0.0483	–	–
G162R	0.0626	0.0684	0.0715	–	0.0625	0.062	0.0666	0.0689	–	0.0877	–	0.0463	–	0.0598	–	–	–	–
V157E	0.0691	0.0563	0.0513	0.0821	0.0664	0.0483	–	0.0422	0.0575	0.0384	0.0534	0.0512	0.023	0.0586	–	–	0.0471	–
H76D	0.0548	0.0668	0.0582	–	0.0648	0.079	–	–	0.0614	0.0611	0.0912	–	0.0578	–	–	–	0.0564	–
F38K	0.0932	0.0599	0.0699	0.0628	–	0.0473	–	0.0368	0.0337	0.0443	–	0.0443	0.0303	0.0584	–	–	–	0.0582
L22D	0.0472	0.0488	0.0538	0.0611	0.0499	0.048	0.0467	0.0541	0.0398	0.0437	–	0.0457	–	–	–	0.0466	0.0576	–
L22Y	0.0467	0.0556	0.054	0.0519	0.0539	0.0482	–	0.0531	0.0404	0.0607	–	0.0477	0.0604	0.0463	0.0574	–	0.0483	–
L22C	0.066	0.0668	0.0776	–	0.103	0.05	–	0.074	0.0627	0.0908	0.0671	–	–	0.0522	0.0706	0.0551	–	–
K66M	0.0668	0.0571	0.0755	–	0.0651	0.0648	0.0701	0.0549	0.0653	0.0799	0.0777	0.0564	0.0512	0.0619	0.0593	–	0.0848	–
Q194N	0.068	0.0614	0.0853	0.0987	–	0.0837	–	0.0691	0.0857	0.0686	–	0.0735	–	0.0691	–	–	–	–
M188S	0.0716	–	0.102	–	0.0783	0.064	0.0675	0.0666	0.0581	–	–	–	–	0.0679	–	–	–	–
I145V	0.0633	0.0556	–	–	–	–	–	0.058	–	0.0419	0.0977	0.0696	0.0833	–	–	0.0867	–	0.0771
G37S	0.0598	0.0614	0.0778	0.107	0.0741	0.0675	–	0.0773	–	0.0475	0.0734	0.0634	0.0552	0.0627	–	–	0.0496	–
G37A	0.0746	0.0684	0.0901	0.0946	0.0768	0.0642	0.0746	0.0426	0.0629	0.0551	–	0.0814	0.076	0.0634	–	0.0731	0.0558	0.0767
L191P	0.0594	–	0.0501	–	0.0547	–	0.0525	0.0703	–	–	–	–	–	0.0567	–	–	0.0548	–
N116L	0.0757	0.0613	0.0828	–	0.0812	0.0386	0.0649	0.0513	0.0705	–	0.0776	0.0894	0.0828	–	–	–	0.0807	–
I110N	0.0641	0.0747	0.0497	–	0.0671	–	–	0.0495	0.0577	–	0.0322	0.0475	0.0584	0.0616	–	0.0664	0.0656	–
L33R	0.0734	0.0645	0.0718	0.0644	0.0632	0.0729	–	0.0641	0.0585	0.0709	0.0639	–	0.066	0.0515	0.0707	–	0.0603	0.0535
L33Y	0.0494	0.0596	–	0.063	0.0651	0.0608	0.109	0.0721	0.0582	0.0564	0.0502	–	–	0.0646	–	0.0521	0.0718	–
L33H	0.0507	0.0609	0.067	0.067	0.0678	0.0586	0.057	0.0649	0.0588	0.0654	–	0.0615	0.059	0.0704	0.0728	–	0.0679	–
K142W	0.0503	0.0736	0.114	0.077	0.0291	–	–	0.065	–	0.049	0.0377	0.0611	–	0.0546	–	–	0.0614	0.0577
T147M	0.0763	0.0733	–	–	–	–	0.0573	–	–	–	–	–	–	–	0.0516	–	0.0585	–
K90G	0.073	–	0.0802	–	0.0844	0.0675	0.0798	–	–	0.0757	0.0843	–	–	–	–	–	0.0657	–
L73R	0.0487	0.06	0.097	0.0603	0.0582	0.0478	0.053	–	0.0718	0.0553	0.0596	0.0625	–	0.065	0.058	–	0.0731	–
L73Q	0.0664	0.0566	0.0583	0.0671	0.0564	0.0551	–	0.0446	0.0635	0.0535	0.0752	0.0463	–	–	0.0288	0.0488	0.0529	–
